From article PMC6919601, “Identification of Plasmodium dipeptidyl aminopeptidase allosteric inhibitors by high throughput screening” (PLoS ONE, 2019) come the findings set out here.

The structures appear in SMILES notation. About 230 (0.21%) of roughly 110,000 compounds showed an effect of 50% or more. The list shows a part of the results.
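Further: 30 min substrate incubation versus DMSO and 10 µM JCP410 controls.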

DPAP1, sequence (Q8IIJ9 whole entry, looked up): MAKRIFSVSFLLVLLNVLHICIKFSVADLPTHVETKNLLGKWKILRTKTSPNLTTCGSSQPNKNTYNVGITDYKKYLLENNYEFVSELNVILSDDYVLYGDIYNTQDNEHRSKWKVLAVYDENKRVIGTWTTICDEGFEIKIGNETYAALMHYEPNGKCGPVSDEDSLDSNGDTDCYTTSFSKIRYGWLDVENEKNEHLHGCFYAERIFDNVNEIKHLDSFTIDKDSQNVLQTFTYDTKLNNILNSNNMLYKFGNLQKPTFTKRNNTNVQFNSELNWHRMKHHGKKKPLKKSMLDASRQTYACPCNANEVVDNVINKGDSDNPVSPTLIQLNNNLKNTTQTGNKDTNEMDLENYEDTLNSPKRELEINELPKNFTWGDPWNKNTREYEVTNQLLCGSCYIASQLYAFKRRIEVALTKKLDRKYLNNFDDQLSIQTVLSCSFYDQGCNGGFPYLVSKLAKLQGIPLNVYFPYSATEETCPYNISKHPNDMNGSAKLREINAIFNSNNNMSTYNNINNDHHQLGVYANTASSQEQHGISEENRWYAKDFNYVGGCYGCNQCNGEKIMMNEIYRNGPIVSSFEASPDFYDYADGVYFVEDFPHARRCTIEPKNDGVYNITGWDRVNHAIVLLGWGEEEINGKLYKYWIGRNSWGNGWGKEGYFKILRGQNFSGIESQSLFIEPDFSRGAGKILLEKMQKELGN

The assay addresses DPAP1 (Plasmodium falciparum, UniProt Q8IIJ9). Kind of assay: primary screen, percent inhibition; read by cleavage of a fluorogenic dipeptide substrate; higher = more effect of the substance. Also noted: species or system P. falciparum D10 trophozoite lysates; single well.
With `COc1ccc(-n2c(SC(C)C)nc3c(c2=O)C2(CCCCC2)Cc2ccccc2-3)cc1`, the “% Inhibition @ 10 uM” value is -2.48%.

With `Cc1ccc2nc(C3C(=O)c4ccc(Br)cc4C3=O)ccc2c1` (centres unmarked), the “% Inhibition @ 10 uM” value was -3.42%.

As for `Cc1ccc(N(CC(=O)N2CCc3ccccc3C2)S(C)(=O)=O)cc1Cl`, the “% Inhibition @ 10 uM” value is recorded as -1.41%.

Turning to `Cc1cc(OCC(=O)NC2CCCCCC2)ccc1Cl`, the “% Inhibition @ 10 uM” value is given as -1.55%.

`Cc1cc(C)c2nc(N3CCCC(C(=O)NC4CCCC4)C3)sc2c1` (centres unmarked): the “% Inhibition @ 10 uM” value was 0.137%.

In the case of `CCN(CC)CCOc1c(OC)cccc1OC`, the “% Inhibition @ 10 uM” value is given as -2.2%.

Regarding `Cc1cccc(N2C(=O)C3C4C=CC(C4)C3C2=O)c1C` (centres unmarked), the “% Inhibition @ 10 uM” value is listed as 8.09%.

As to `CCCOc1ccc(C2C3=C(O)CCCC3=NC(C)=C2C(=O)Nc2ccccc2C)cc1OC` (centres unmarked), the “% Inhibition @ 10 uM” value stood at 3.05%.

As to `C=CCNC(=O)c1c(O)c2ccccc2n(C)c1=O`, the “% Inhibition @ 10 uM” value is reported as -0.711%.

For `O=C(O)CCC(=O)Nc1sc2c(c1C(=O)Nc1ccc(Cl)cc1)CCCC2`, the “% Inhibition @ 10 uM” value was determined as 16.8%.

`CCCCOc1ccc(C(=O)Nc2nc3c(s2)Cc2cc(OC)ccc2-3)cc1`: the “% Inhibition @ 10 uM” value was -0.0735%.

For the compound `CC(NC(=O)C1c2ccccc2C(=O)N(C)C1c1cccs1)c1ccccc1` (centres unmarked), the “% Inhibition @ 10 uM” value worked out at 4.59%.

As to `CCOc1cc(/C=C2/C(=N)N3OC(C)=CC3=NC2=O)cc(Cl)c1OCc1ccccc1`, the “% Inhibition @ 10 uM” value is reported as -3.23%.

As to `CC(c1ccccc1)c1nnc(N)s1` (centres unmarked), the “% Inhibition @ 10 uM” value amounted to 3.25%.

On to `COc1ccc(C2(C)N(O)C(C)C(c3cccs3)=[N+]2[O-])cc1` (centres unmarked), for which the “% Inhibition @ 10 uM” value was -3.41%.

With `CCCCC(=O)Nc1nonc1-c1ccc(OCC)cc1`, the “% Inhibition @ 10 uM” value is given as 3.84%.

In the case of `COc1ccc(OCC(O)CN2CCCCCC2)cc1` (centres unmarked), the “% Inhibition @ 10 uM” value is given as 2.44%.

Turning to `COc1ccc(-c2noc(N3CCC(C(=O)N4CCN(C(=O)c5ccco5)CC4)CC3)n2)cc1`, the “% Inhibition @ 10 uM” value is -3.1%.

`CC(=O)Nc1noc2ccccc12`: the “% Inhibition @ 10 uM” value was 3.57%.

For `COc1ccc(C2CC(=O)N=C(NC(=O)c3cccc(Cl)c3)N2)c(OC)c1OC` (centres unmarked), the “% Inhibition @ 10 uM” value is reported as 0.723%.

As for `CCOc1ccc(CC(=O)Nc2ccc(N(C)C(C)=O)cc2)cc1OCC`, the “% Inhibition @ 10 uM” value was found to be 1.28%.

In the case of `CN1C(=O)c2ccc(NC(=O)c3ccc(OCc4ccccc4)cc3)cc2C1=O`, the “% Inhibition @ 10 uM” value is given as -0.0619%.

As for `Cc1ccc(N2C(=O)CC(N(C)Cc3ccccc3)C2=O)c(C)c1` (centres unmarked), the “% Inhibition @ 10 uM” value is reported as -5.69%.

Consider `CN1CCCN(C2C3CC4CC(C3)CC2C4)CC1` (centres unmarked), for which the “% Inhibition @ 10 uM” value is reported as 3.19%.

Turning to `O=C(/C=C/c1ccccc1)N1CCN(c2ccc(F)cc2)CC1`, the “% Inhibition @ 10 uM” value is given as 5.12%.

Consider `CC(C(=O)NCc1ccc2c(c1)OCO2)n1ncn2cccc2c1=O` (centres unmarked), for which the “% Inhibition @ 10 uM” value is -3.43%.

`COc1ccccc1/C=C(\C#N)C(=O)NCc1cccnc1`: the “% Inhibition @ 10 uM” value is listed as 14.8%.

As for `CCn1ncc(CN(C)S(=O)(=O)c2cc(Cl)ccc2Cl)c1C`, the “% Inhibition @ 10 uM” value is recorded as -5.44%.

On to `O=C(O)Cn1cc(/C=C2\C(=O)NC(=O)N(Cc3ccco3)C2=O)c2ccccc21`, for which the “% Inhibition @ 10 uM” value is on record as 3.52%.

As for `CCOC(=O)c1cc(COC(=O)CC)oc1C`, the “% Inhibition @ 10 uM” value was -0.736%.

With `CCOC(=O)C1CCCCN1Cc1ccc(C(F)(F)F)cc1` (centres unmarked), the “% Inhibition @ 10 uM” value was -0.127%.

As for `COc1ccccc1C1CC(=O)NC(C)=C1C(=O)OCc1ccc(C)cc1` (centres unmarked), the “% Inhibition @ 10 uM” value is recorded as -1%.

With `CS(=O)(=O)N1CCC(Cc2ccccc2)CC1`, the “% Inhibition @ 10 uM” value worked out at 4.9%.

`COc1ccc(C(=O)N2CCN(C3CCC(c4ccccc4)CC3)CC2)cc1` (centres unmarked): the “% Inhibition @ 10 uM” value is 0.611%.

Regarding `CCOc1cc(C2C(C#N)=C(N)Oc3[nH]nc(-c4cc(OC)ccc4OC)c32)ccc1O` (centres unmarked), the “% Inhibition @ 10 uM” value is reported as 6.29%.

For `N#CCNC(=O)[C@H](Cc1ccc(Cl)c(Cl)c1)NC(=O)OCc1ccccc1`, the “% Inhibition @ 10 uM” value was -1.82%.

Take `CCN(CC)CCCNC(=O)c1sc2ncn(CC(=O)N3CC(C)CC(C)C3)c(=O)c2c1C` (centres unmarked): the “% Inhibition @ 10 uM” value was 8.71%.

On to `CC1CCN(C(=O)Cn2nnc3sc4c(c3c2=O)CCC(C)C4)CC1` (centres unmarked), for which the “% Inhibition @ 10 uM” value stood at 3.87%.

For the compound `CCc1ccc(-c2nc(CSCC(=O)N3CCN(Cc4ccccc4)CC3)c(C)o2)cc1`, the “% Inhibition @ 10 uM” value is recorded as -1.27%.

`CCCCOc1ccc(NC(=O)NC2(c3ccccc3)CC2)cc1`: the “% Inhibition @ 10 uM” value is -5.67%.

On to `Cc1cc(C)nc(SCCn2c(N3CCOCC3)nc3c2c(=O)n(C)c(=O)n3C)n1`, for which the “% Inhibition @ 10 uM” value was -0.946%.

Take `O=C1NC(c2cccc3ccccc23)Nc2sc3c(c21)CCCC3` (centres unmarked): the “% Inhibition @ 10 uM” value is recorded as 6.4%.

Turning to `COc1ccc(C2C(C#N)=C(N)Oc3c2sc2ccccc32)cc1OC` (centres unmarked), the “% Inhibition @ 10 uM” value was found to be 2.44%.

`CCOC(=O)N1CCN(c2c(N3CCN(CC)CC3)c(=O)c2=O)CC1`: the “% Inhibition @ 10 uM” value is on record as 1.93%.

In the case of `CCOC(=O)C1CCN(Cc2c(Cl)cccc2Cl)CC1`, the “% Inhibition @ 10 uM” value is listed as -2.34%.

Consider `CCC(Sc1nc2ccccc2c2nc(CCn3cncc3C)nn12)C(=O)NCc1ccc(C)cc1` (centres unmarked), for which the “% Inhibition @ 10 uM” value is 3.05%.

For `O=C(NCc1ccco1)Nc1cccc2ccccc12`, the “% Inhibition @ 10 uM” value is listed as -5.51%.

Consider `COc1ccc(/C=C2\SC(=O)N(CC(=O)Nc3ccccc3F)C2=O)cc1OC`, for which the “% Inhibition @ 10 uM” value is -3.43%.

Turning to `O=C(CCc1nnc2n(Cc3ccccc3)c(=O)c3ccccc3n12)NCc1ccco1`, the “% Inhibition @ 10 uM” value is recorded as -2.42%.

As for `CCCSc1nnc2c(n1)OC(C)Nc1ccccc1-2` (centres unmarked), the “% Inhibition @ 10 uM” value is recorded as -7.12%.
